According to the supplement of paper PMC3334620:
In all, about 33,000 sequences were measured (“E-score (-0.5 to 0.5)”: median about -0.043, highest 2% from about 0.37 on). The list shows a part of the results.

Biological target: T1, Upc2 (UniProt Q12151)
T1 sequence: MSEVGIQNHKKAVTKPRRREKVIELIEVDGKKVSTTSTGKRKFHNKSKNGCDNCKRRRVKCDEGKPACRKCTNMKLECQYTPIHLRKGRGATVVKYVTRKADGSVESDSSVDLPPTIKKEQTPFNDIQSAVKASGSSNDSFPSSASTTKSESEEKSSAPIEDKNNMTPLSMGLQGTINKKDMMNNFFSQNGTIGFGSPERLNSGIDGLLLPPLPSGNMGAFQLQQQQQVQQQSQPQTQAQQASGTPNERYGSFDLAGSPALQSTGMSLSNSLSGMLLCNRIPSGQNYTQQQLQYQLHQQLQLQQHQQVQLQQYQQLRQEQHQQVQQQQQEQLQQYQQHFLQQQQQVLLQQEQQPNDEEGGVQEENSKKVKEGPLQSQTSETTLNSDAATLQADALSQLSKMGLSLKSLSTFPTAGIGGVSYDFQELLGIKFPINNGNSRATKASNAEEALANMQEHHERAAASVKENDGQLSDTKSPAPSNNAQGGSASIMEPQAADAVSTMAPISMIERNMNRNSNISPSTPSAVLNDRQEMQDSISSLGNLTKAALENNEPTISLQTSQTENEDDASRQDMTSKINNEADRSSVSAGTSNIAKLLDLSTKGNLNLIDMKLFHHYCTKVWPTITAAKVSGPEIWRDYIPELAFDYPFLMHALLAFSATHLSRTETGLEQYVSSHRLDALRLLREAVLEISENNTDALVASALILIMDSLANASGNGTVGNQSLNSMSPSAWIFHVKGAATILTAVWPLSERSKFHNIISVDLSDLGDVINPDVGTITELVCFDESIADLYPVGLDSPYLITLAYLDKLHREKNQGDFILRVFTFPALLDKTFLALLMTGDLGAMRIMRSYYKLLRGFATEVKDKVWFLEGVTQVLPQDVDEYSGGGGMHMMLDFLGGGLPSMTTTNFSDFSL
Experiment: PBM E-score (8-mer binding enrichment) (E-score (-0.5 to 0.5)); higher = stronger / more preferred TF binding; most listed sequences are background and not binding sites
Settings: protein concentration: 200 nM; construct: GST-full length
Procedure: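 Universal 'all 10-mer' protein binding microarrays (Agilent AMADID 015681) probed with GST-tagged S. cerevisiae TFs (full-length or DBD) made by in vitro transcription/translation (PURExpress), about 100-200 nM. Bound TF was detected with fluorescent anti-GST. Each ungapped 8-mer (which stands for itself and its reverse complement) is scored by the PBM enrichment score (E-score), a modified Wilcoxon-Mann-Whitney statistic from -0.5 to +0.5, computed with the Universal PBM Analysis Suite. Scale: above 0.35 generally sequence-specific binding.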

Sequence | PBM E-score
CTTAGTCA | -0.218
AAGCTACG | 0.256
ACCGGATC | -0.0922
ATATTCAA | 0.0351
GGACAAGA | -0.136
CCTAAGAA | -0.11
GTCCCCCA | -0.157
GCAATGCC | -0.00733
CCACGTAA | 0.103
ATCCGTAC | 0.366
ACATGCAA | -0.0367
CGATGAAC | 0.127
ACAAGTGG | -0.2
CCTCGCGA | 0.207
AGGCGGTC | -0.0142
CCTGTTTA | 0.017
CACGTGGC | -0.224
CGAGTAAG | 0.113
GGACCACC | -0.112
GGCCCACA | -0.0602
CTTAAACC | 0.0632
GACAATCA | -0.00959
AGTATTTA | -0.0307
AGCTAGCT | -0.115
AACACGGT | 0.0435

Sequence | PBM E-score
GAGGAGGC | -0.11
CTGAAACA | -0.174
ATGGTAGA | -0.17
CTTCAAAC | 0.122
AGCTAGTA | 0.0399
GCGATGAA | -0.011
AGAAATAC | 0.0311
AGGATACG | 0.332
CTTTCTTC | -0.158
CGATGTAG | 0.036
AACAAATT | 0.00094
CTAACGGA | 0.0896
GGAACATA | 0.00323
GAATGAGA | -0.237
AGCATGGG | -0.249
GAAAAGTA | 0.0477
AATGTGCA | 0.0502
TTGCGAAA | 0.0964
AAGTTTCC | -0.0551
AAGCAAGC | -0.114
AGTGAGCG | -0.0187
GTAAATAC | 0.175
GGAGTGCA | -0.0479
ACTTCGAT | 0.137
CGCTACTC | 0.0112

Sequence | PBM E-score
AAGGGGTG | -0.265
GCCTGCAA | -0.0133
AGTGTAGC | -0.14
AGAGCTAG | -0.113
CTAGAGGA | -0.337
GTAGTCAC | -0.225
CCGTTCCC | 0.385
ACAGCAAT | -0.0404
GAGCAGCA | -0.098
ATACGATC | 0.465
GATCTGCC | -0.145
AAAGAATC | -0.0264
AGGGCTCG | 0.224
AAGAAATG | -0.0455
CCTCACCA | -0.0918
ACCGAGGG | 0.137
AAGTGGTA | -0.0616
ATTTTTGA | -0.136
CTACTCTA | -0.0845
CGATTAAA | 0.282
GATCTGAC | -0.0617
ATTTGGTA | -0.0347
CCCGGGTC | -0.162
AGCGCGGC | -0.164
CGGGTAAA | 0.18

Sequence | PBM E-score
CATCCTCG | 0.109
AGCGTTCC | 0.117
GATTAATC | 0.101
CTATTGAG | -0.135
CTGGTCCC | -0.271
CCAACGAG | 0.091
AACTATTA | 0.0272
ACTTAATG | 0.19
ATATTATG | -0.00531
GTCGCTAA | 0.271
ATATGCAA | -0.0189
TTTCGAAA | 0.161
AGGTACTG | -0.108
GGGACCAC | -0.24
ATTAGACA | -0.139
ACGGAGAT | 0.0291
AGCCGATG | -0.0627
AAATTAAC | 0.00077
CACACCTA | 0.0891
CGGGGCCA | -0.00898
ACTGGCAT | -0.227
CAATTATG | 0.00554
ACGCATAT | 0.124
CCTCGTTC | 0.46
TATTACGA | 0.364

Sequence | PBM E-score
ATATTGAT | 0.007
ATCAAACA | -0.167
AATCCCAA | -0.0579
ACGCATCT | -0.0343
GCATGTCC | -0.21
CAGTCGCA | 0.077
TGTAGACA | -0.0876
CATGATAA | 0.0845
CGGCTCAG | 0.0248
CTGTTCTA | -0.233
ACGCATAG | 0.269
CTCGGAAC | 0.248
ATCGTGTA | 0.279
CTGCCACC | -0.262
ACAAGCGC | 0.0528
ACCGAATC | 0.197
ACAAGAAT | -0.215
CAGAGCAG | -0.14
ACGGCCCG | 0.219
AATTGTAC | 0.296
CAACATAC | 0.259
GAGTGCGA | 0.0252
CTTAAGCC | -0.122
ACTTCACA | -0.0551
CCCAACGC | -0.156

Sequence | PBM E-score
CTGGGAAC | 0.0868
ACTTTGGA | 0.00092
GGTTTAAC | 0.138
GCATCCAC | -0.117
ACTCTCTC | -0.122
ATGCGTTG | -0.0232
ACTGTTTG | 0.0144
AGTATACA | 0.149
GACTTAAA | 0.158
ACACTTCT | -0.0252
AGGGCGGC | -0.192
ATTGATAG | -0.101
CCATATAC | 0.306
CAGCAGTC | -6e-05
ATATAACA | 0.09
CTATGAAA | -0.198
TACAACAA | 0.148
CGCTGAGA | -0.169
TGCGTACA | 0.318
ACTGTCCG | 0.148
CTGTGGTA | -0.0139
AACCTTAC | 0.0867
GCCAGAAA | -0.0776
GTTCATAA | 0.0195
GTCTGTTA | -0.00123

Sequence | PBM E-score
AATCTACC | -0.0212
GACACCTA | -0.118
CAGGTTCA | -0.195
CTGGACTA | -0.326
CCAAGGAG | -0.335
CGTGTGAA | 0.113
GCGATCTA | 0.0291
ATCGAGAC | 0.136
AGCCATAT | 0.0338
ATCGTGCA | 0.0793
AATGGTTA | -0.116
CCACGCCG | -0.0532
ACGTACTC | 0.29
CCCTATAA | -0.00945
TCCATAAA | -0.102
CGATCCTC | 0.149
CTCTGGTC | -0.299
AAGGCAGA | -0.143
GTCTCCAC | -0.174
GATCCAGA | 0.0551
CAGCGATA | 0.0549
AGATAATC | -0.0843
